Experimental data reported in the RNAGym collection of RNA variant scans (doi:10.1073/pnas.2313332121).
Variants at the floor of the assay are shown more often than the library holds them.

B1: TPR 5TU (parent)
chain: GGAUCUUCUCGAUCUAACAAAAAAGACAAAUCUGCCACAAAGCUUGAGAGCAUCUUCGGAUGCAGAGGCGGCAGCCUUCGGUGGCGCGAUAGCGCCAACGUUCUCAACUAUGACACGCAAAACGCGUGCUCCGUUGAAUGGAGUUUAUCAUG

Variants of: B1
Assay: polymerase ribozyme fitness, log enrichment relative to wild type (log ratio); higher = more active; in vitro selection for triplet polymerase activity
How it was run: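 One round of in vitro selection, in triplicate, was applied to PCR-built, transcribed mutant libraries of each subunit of a heterodimeric triplet polymerase ribozyme. The steps were annealing with a biotinylated primer, partner subunit and triplets, incubation frozen at −7 °C, gel excision of extended constructs, streptavidin-bead capture and RT-PCR. Fitness is the logarithm, base 2, of genotype enrichment over wild-type enrichment from inverse-variance-weighted replicate averages of Illumina-sequenced inputs and outputs, keeping genotypes with ≥10 input reads and ≥1 read per output.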

Polymerase ribozyme fitness (log ratio), -3:
A17U G59U C93U C114G

Polymerase ribozyme fitness (log ratio), -0.93:
A19G G59U

Polymerase ribozyme fitness (log ratio), -3.02:
C18U A41G C85A U134A

Polymerase ribozyme fitness (log ratio), ≤ -4.2:
A17U G59A G86A A89U U134C U146A A147G
A19U A20U A52C U55A A91U C108U
A19G C38U G50A G86A C105A C116A A121U G141C
A19U A26G A41U G58C G62A G80C C95U G117U
C18G G58U G117A A122G A142C
C18G G81U G92U U148A
A17U A37U G59C G67C A91U A113C C123G
A17U A52C A66G C85G
A17U U53G C99A C125G G141U U146C
A19G G25U A110U
A19C A23U G70A G141A
C18U U61G G112C C132A
A19C A20G A73G G74U G81U C93U U151G
C18A A22G G81U C87G C108G A120G G152A
A19U A28G A40U A41C G62C C93U G94A A115U C118A C131G
C18A A21U A52G C54U G92A C103A
C18G A23C G25C C43U G83A U104G C116U G152U
A19C G34A U77C C87G G92U C96A G152A
A19C U44A C57U U61A U145G
A19U A40C A91U C95G
C18U A30U C38A A39C U55C A97G
C18U A37U G48A C85G C132G
C18A A24G A26G C85G G141C U144G
A19G A21G C93A C118U
A19C A24G C32U C38U G59A C85A G133U U145C
C18U A19G U33A G58C C96U C118A A121G
C18U C79G C96G
A19G A66G
A19C A24U C114U C118U G141A U145G
A19G G68C A89G C108U C114U A150G
A17U G59C G86C A113U
A17U A29U U55A C69A C75G C87A G94A C95U
C18G A26U G92U G128C
C18U C85G C118G A137U
A19G A28U C99U C108G U130C
C18U A29U A52C C93A C125G U144A A147U
C18U A52U U127A
A19G A39C C43U A73G G83A G128U
A17U A22U C51U U55A C75A C85U U101A C114U A115G G124A
A17U G42U G48A C54U U61G U77A G86A A137U
A19C A41C G48C C87U A91C C123G G133U
A19G U44C U56A C57U C85U C95G
A17U A39U A98G G133C
C18U A19U C79G U82A U109C
C18U U53A G88A G117U
A19C A29U C85U
A19C U53A C85G C93A C95G C116A A142G
A17U A52C C75G C93U A138C C149G
A19G A30G C38U C85G A89U U130G
C18U A29C U78G G92A A147C
A19U A26C A98U U102G
C18G G48C A66G C93U A110G G133A
A19C A40C C54G G58A U61A U104C
C18G C32G A66U A89G C95G A107U
A19C G48C C51A G86U G128U
A19G A39U C57U C63U G94C U144G U145C C149A U151C
A17U U44G U45A G74C G83U A89U C118A
C18U A39G U61C C87G C93G C108G
C18U C38G A40G U61A G81C C96A U146C
A19U A26G C38G U45A C69U C96A C103U
A19G A22U G70A C105U A150G
A17U U31G G67A
C18G G59A G80A C93A U102A
A19G C76G A89U A91G U134A
A17U G59A G74A G100A G126U
A17U A23G C87A C99U A138U
A17U C32G G58U U61G G86U C93A C108U G128C A142U U145C
A19G A52G G58A C93G U102C U135G G143A
C18G A24C C79U C85U C96A A110U C125A G143A
C18G C43A A52C G71A A91U C95G U146C
A19G C93A G140A
A17U G84U C85U C87G C96A A142U U148G
C18G A39C U45A G88C
A19G A23G G67C C87U
C18G C72U G86U G88C A150G
C18A A24G G25A A39U C63U C75U C96U A107C
A17U U56C G74U C76U G84U C125G A138C
A19C C32G G46C G84A C116G G141U
C18G A24U C93A U130G A147U
A17U C36G G67U C87G C95G C99A C103A
A17U C35A C63U A142C A150C
A17U A26U A41C G62C C87U A107U
A19C A24G G94U C95G
C18A U55C C76G G81A C87U G140C U151A
A17U A64G A73U U102G A121U
A19G C27G A52U G71U G80A G84A C118A
C18A C38U C51U C96G C116G U148A
A17U A28G G59A G68A G81U G84A C87A U146C
A19C G84A A119C U135G G140U
A19C G34A A49G A52U G68U C95U A120U C132U U146A
A19G C35U U127G G133C
C18U C57U G58U C75G C85A U148C
C18U C57A G84A U151G
A17U A39C A60C G86C C87A
C18U C35U U55G A91G A106G G141A
A19U A26U C27G C69U G84C C132G G143A
C18G A20G C32G G65C G67A G83A U139A
A17U U33A C36A C76A G94A G117U C129U
A19C C36A C79G C114A G141A
A19U A40G U61A C96G G133C U135A
A19C U53G C72A C79A U90A C103G G140C
A19G C35A G42C G68C G92A
C18G G25U A138G
C18G C57G A66C C95U A120G
A19C G62C C72A C87A C131U U135A
C18G A24U A26U G81A U82A A113C C116A
A17U G46C U90G
A19C U53G C54U C75G G92U A106C U109A
C18U C54U C93G A119C
A19C C27A A47C G58A G59A A91G C123A
A19C G81U G94U U104G U130A G136U
A19G A21G U33G G128C U148C
C18U G42A A73U C95U A98U C103G
C18G G59C G88C G100A A107U G141C
A19G A26U C85A A97C A119U C123U
C18U C32A C43U G83C U145C
A19G G83C G84C C95G U102G A107G
A17U A23G A73G U90C C132U U134A U146G
C18G A39G C54A U78A C93U
A19U A26G C27U A66C
C18U A40U U77G G84U C96U U151C
A17U U33G G34C A47G
A17U A47C G83A A98U G133A U148C
A19U A24G C35A C43U U56A U61A A89C U109A A110C G140A
C18A G74C C93A
A19U A21U G68C G92A
A19C A23G G34A A37U G68A
A19C A60G C79A
C18U C85G C99G C125A A137U U151C
C18U A20U A22C G48A C76G
A19C C36U U61C C132U
C18G G42U C43A G50A G58U A73U C95U C125G G133A U146C
C18G A52G G71A C99G
C18G C32A A47C C85G A97U C99U C125G U127C
C18G A20U C63A U101C U151G
A17U G58C C118G A120G
A19C A52C A89C U135G
A19G C54U C57U G59C A60C G83U A97G C108U A120U
C18U G83C C87G C114U A120U A138G

Polymerase ribozyme fitness (log ratio), -0.693:
C18G U56A

Polymerase ribozyme fitness (log ratio), -0.536:
A19C C85U

Polymerase ribozyme fitness (log ratio), 0.17:
C18G C93U A98G A120C G141U

Polymerase ribozyme fitness (log ratio), -1.96:
A17U G58C C95U C99A
A17U G83A C96U C125U C129U

Polymerase ribozyme fitness (log ratio), -0.999:
C18U A142C

Polymerase ribozyme fitness (log ratio), -4.01:
C18U C36A

Polymerase ribozyme fitness (log ratio), -3.43:
A19G C93A

Polymerase ribozyme fitness (log ratio), -2.84:
C18G A26U C96A
A19C C93G

Polymerase ribozyme fitness (log ratio), -2.62:
A19G A98U A115U A120U

Polymerase ribozyme fitness (log ratio), -3.87:
A19C U44A

Polymerase ribozyme fitness (log ratio), -3.88:
A19C G58C C95U G140U

Polymerase ribozyme fitness (log ratio), -3.72:
C18U U56A G83A U102A U144A

Polymerase ribozyme fitness (log ratio), -4.03:
C18G A19C G88A G92U C95U U134A

Polymerase ribozyme fitness (log ratio), -3.19:
C18U C93G

Polymerase ribozyme fitness (log ratio), -3.27:
C18G C54U U56A A73G A91G

Polymerase ribozyme fitness (log ratio), -1.06:
A19G G94A

Polymerase ribozyme fitness (log ratio), -3.82:
C18U A20U C103A G124A

Polymerase ribozyme fitness (log ratio), -1.83:
A19C C38A C57A G80U C95U C116G

Polymerase ribozyme fitness (log ratio), -1.75:
A17U G84U
A17U C87U

Polymerase ribozyme fitness (log ratio), -4.14:
A19G U109G U139C U144C U148C

Polymerase ribozyme fitness (log ratio), -3.63:
C18U A91G

Polymerase ribozyme fitness (log ratio), -0.554:
A19C C57U G94U
